Target: PRMT5/MEP50 Complex (Homo sapiens (Human), UniProt O14744)
Assay: PRMT5 inhibition based on TR-FRET assay
Format: biochemical
Details: 32 nM PRMT5:MEP50 complex, 50 nM Histone-H4 peptide, 1 μM SAM, 90 minutes at room temperature
From the text: Protein arginine methyltransferase 5 (PRMT5) is a type II arginine methyltransferase that catalyze mono- and symmetric demethylation on arginine residues of histone or non-histone proteins in presence of S-adenosylmethionine (AdoMet or SAM) a cofactor responsible for donating the methyl group. PRMT5 is reported to be overexpressed in several human cancers. To identify compounds that inhibit the PRMT5 and decrease its activity, a TR-FRET based assay has been established. Time-resolved fluorescence resonance energy transfer (TR-FRET) HTS assays are homogeneous proximity assays where the interaction of two dye-labeled binding partners is detected by the energy transfer between a donor and an acceptor dye, and the subsequent light emission by the acceptor dye. PRMT5 catalyzes Histone H4 peptide which is biotin tagged to the Lysine amino acid at carboxyl end, in presence of S-adenosyl-1-methionine (SAM) to methylate the peptide. The antibody specific to mono methylated H4 peptide (H4R3) with Ig conjugate binds to the methylated peptide, indirectly binding to the Europium lanthanide. […]
The compound dilutions were prepared as 7.5% DMSO stock solutions in assay buffer. […] The plates were then read on Victor-3 with Excitation at 340 nm and Emissions collected at 615 and 665 nm in TR-FRET protocol. […]

SMILES	IC50 [µM]
O=C1N(Cc2ccc(N3C4CCC3COC4)cn2)CCN1C[C@H](O)CN1CCc2ccccc2C1 [Compound 18, 1-((5-(3-oxa-8-azabicyclo[3.2.1]octan-8-yl)pyridin-2-yl)methyl)-3-((R)-3-(3,4-dihydroisoquinolin-2(1H)-yl)-2-hydroxypropyl)imidazolidin-2-one]	0.025
CN(C)S(=O)(=O)C1CCN(c2ccc(CN3CCN(C[C@H](O)CN4CCc5ccccc5C4)C3=O)nc2)CC1 [Compound 15, (R)-1-(6-((3-(3-(3,4-dihydroisoquinolin-2(1H)-yl)-2-hydroxypropyl)-2-oxoimidazolidin-1-yl)methyl)pyridin-3-yl)-N,N-dimethylpiperidine-4-sulfonamide]	0.012
